Experimental data from the supplement of paper PMC10441789.
The list shows a part of the results. Antibody binding of pooled human sera (four to six donors per pool; dilution not stated) to peptides of the Trypanosoma cruzi antigen TSSA on microarrays. Quantile-normalised fluorescence in arbitrary units, mean of duplicate arrays; higher = more binding. No active / inactive call. The uninfected pools are read here as the healthy donors of the same country. The strongest signals lie near the top of the scale (about 60,000).

tested on: pooled sera of uninfected people, Brazil; experiment: antibody binding signal (normalised fluorescence) (arbitrary fluorescence units); higher = stronger serum antibody binding to peptide
Description: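 Microarray of overlapping 15-residue peptides of the four Trypanosoma cruzi TSSA reference variants and 8- to 13-residue peptides of TSSAII 24-62, probed with one serum pool per country.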

Sequence	antibody binding signal
ATGEAPSQPGA	222
PSGTENKPATGEAPS	606
PGASSGEAEAS	99.3
APSQPGASSGEAEAS	132
NGGSTSSTPPS	210
STPPSGTENK	291
SSTPPGTDKKTAAGG	134
SQPGASSGEA	157
STISTPPSGTEKKAA	242
PSGTENKPATGEA	368
PGASSGEAEA	166
GGSTSSTPPSGT	219
SGTENKPAT	289
ANGGSTISTPPSGTE	122
STPPSGTENKP	417
STPPSGTE	93.3
ASSGEAEASS	117
STPPSGTEN	128
STPPSGTDKKTAAGE	301
SGASSGEAEASSNKN	110

Sequence	antibody binding signal
GGSTISTPPSGTDKK	151
NGGSTSSTPPSGTEN	209
GSTISTPPSGTEKKA	267
SQPGASSGEAE	107
TAAGGTPSPSGASSG	328
TSSTPPSGTENKPAT	825
EAPSQPGAS	150
TEKKAAAGEAPSPSG	169
NGGSTSSTPP	208
GTENKPATGE	227
PSQPGASSGEAEA	122
CTTANGGSTISTPPS	375
GEAPSQPGASSG	254
STSSTPPGTDKKTAA	221
KPATGEAPSQPGASS	315
KPATGEAPSQPGA	351
ENKPATGEAP	258
GSTSSTPPSGTE	173
ENKPATGEAPSQP	248
PSGASSGEAEASSNK	183
